For assay [1], the target named is T1, Trs20 (Saccharomyces cerevisiae) (UniProt P38334).
T1 sequence: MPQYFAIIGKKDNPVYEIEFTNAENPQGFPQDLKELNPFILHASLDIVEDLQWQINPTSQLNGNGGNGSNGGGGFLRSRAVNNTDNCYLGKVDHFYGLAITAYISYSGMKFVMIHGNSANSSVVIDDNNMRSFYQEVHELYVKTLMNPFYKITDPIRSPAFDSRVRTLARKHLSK
The assay is described as follows: cryo-EM structure; TRAPPIII (after anion exchange) mixed 1:3 with Ypt1-7xHis, overnight at 4°C with calf intestinal alkaline phosphatase, complex isolated by SEC in 10 mM Tris pH 7.5, 350 mM NaCl, 1 mM DTT; 3.7 Å reconstruction; both purified.

Assay [2] concerns the target Trs31 (Saccharomyces cerevisiae) (UniProt Q03337). Described as above.
Assay [3] concerns the target T1, Trs20 (Saccharomyces cerevisiae). The assay is described as follows: cross-linking; purified TRAPPIII-Rab1/Ypt1 complex, 625 µM DSSO, 1 h on ice, 10 mM HEPES pH 8, 150 mM NaCl, 1 mM DTT; LC-MS3, MaXLinker; both purified.
Assay [4] deals with Trs31 (Saccharomyces cerevisiae) (UniProt Q03337). The assay is described as above.
Assay [5] addresses T2, Trs85 (Saccharomyces cerevisiae) (UniProt P46944).
T2 sequence: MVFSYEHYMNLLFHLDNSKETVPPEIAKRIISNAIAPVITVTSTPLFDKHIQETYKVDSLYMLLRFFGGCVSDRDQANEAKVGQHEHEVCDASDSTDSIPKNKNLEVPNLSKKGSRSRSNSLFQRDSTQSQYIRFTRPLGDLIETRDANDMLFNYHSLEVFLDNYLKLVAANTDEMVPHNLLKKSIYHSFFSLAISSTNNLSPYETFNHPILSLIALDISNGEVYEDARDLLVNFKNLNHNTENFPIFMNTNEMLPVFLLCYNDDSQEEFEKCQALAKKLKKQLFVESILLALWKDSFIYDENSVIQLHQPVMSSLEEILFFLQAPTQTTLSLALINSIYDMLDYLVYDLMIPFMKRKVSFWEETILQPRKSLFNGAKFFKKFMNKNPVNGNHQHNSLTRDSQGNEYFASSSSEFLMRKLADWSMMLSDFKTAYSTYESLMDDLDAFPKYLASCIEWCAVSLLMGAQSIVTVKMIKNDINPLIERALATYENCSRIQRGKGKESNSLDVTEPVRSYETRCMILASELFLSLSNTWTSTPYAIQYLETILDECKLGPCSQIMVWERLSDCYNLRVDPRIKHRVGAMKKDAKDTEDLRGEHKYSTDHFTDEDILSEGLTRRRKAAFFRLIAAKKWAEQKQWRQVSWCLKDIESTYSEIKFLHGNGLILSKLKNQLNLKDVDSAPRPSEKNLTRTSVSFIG
The assay is described as follows: cryo-EM structure; TRAPPIII (after anion exchange) mixed 1:3 with Ypt1-7xHis, overnight at 4°C with calf intestinal alkaline phosphatase, complex isolated by SEC in 10 mM Tris pH 7.5, 350 mM NaCl, 1 mM DTT; 3.7 Å reconstruction; both purified.

For assay [6], the target named is T3, Trs85[501-698] (Saccharomyces cerevisiae) (UniProt P46944).
T3 sequence: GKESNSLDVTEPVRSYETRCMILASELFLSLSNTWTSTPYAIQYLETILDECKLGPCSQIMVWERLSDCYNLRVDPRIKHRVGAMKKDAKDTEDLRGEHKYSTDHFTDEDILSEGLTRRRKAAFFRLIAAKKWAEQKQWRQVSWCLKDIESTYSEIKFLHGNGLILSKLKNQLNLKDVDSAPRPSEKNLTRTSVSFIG
Kind of assay: SEC; recombinant complex co-expressed in E. coli, after Ni-NTA and MonoQ; Superdex200 10/300 in 10 mM Tris pH 8, 150 mM NaCl, 1 mM DTT; Coomassie gel of the fractions; both purified. For orientation: SEC sorts molecules by how far they enter the pores of the column.

Assay [7] deals with T4, Trs85[Δ575-603] (recombinant) (Saccharomyces cerevisiae) (UniProt P46944).
T4 sequence: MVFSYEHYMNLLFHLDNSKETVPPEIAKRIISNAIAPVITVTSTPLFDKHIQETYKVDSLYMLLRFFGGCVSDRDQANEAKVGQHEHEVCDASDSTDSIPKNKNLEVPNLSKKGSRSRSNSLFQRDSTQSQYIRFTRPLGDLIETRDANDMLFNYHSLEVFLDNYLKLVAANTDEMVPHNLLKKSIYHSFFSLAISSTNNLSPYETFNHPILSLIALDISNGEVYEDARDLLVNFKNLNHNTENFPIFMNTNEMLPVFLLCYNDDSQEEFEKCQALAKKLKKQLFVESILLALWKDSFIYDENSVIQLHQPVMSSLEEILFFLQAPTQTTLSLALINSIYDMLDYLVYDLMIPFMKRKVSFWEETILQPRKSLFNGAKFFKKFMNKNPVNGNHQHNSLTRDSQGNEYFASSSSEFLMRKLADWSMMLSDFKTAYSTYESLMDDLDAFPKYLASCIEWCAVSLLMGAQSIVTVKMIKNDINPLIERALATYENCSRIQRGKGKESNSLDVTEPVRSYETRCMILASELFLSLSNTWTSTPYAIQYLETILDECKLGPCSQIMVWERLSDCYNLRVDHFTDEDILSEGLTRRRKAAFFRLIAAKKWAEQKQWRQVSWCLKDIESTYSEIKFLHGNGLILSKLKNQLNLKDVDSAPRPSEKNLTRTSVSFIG
Described as above.

The target in assay [8] is T2, Trs85 (Saccharomyces cerevisiae). Described as above.
Assay [9] deals with T4, Trs85[Δ575-603] (recombinant) (Saccharomyces cerevisiae). The assay is described as follows: pull-down; nickel-ion affinity purification (Ni-NTA) through the tagged Trs85 from lysate of E. coli co-expressing the core subunits; 40 mM Tris pH 8, 300 mM NaCl, 10% glycerol.

No constants are given. Whether binding was seen depends on the method and setting. For part of these data: Binding seen in cells or lysates may run through a third protein. Some entries that bind do so weakly or less than the wild type. For part of these data: Sequences can lack the tags named with a protein.

The values that follow come from article PMC8204860.

B1: Trs85 (protein, UniProt P46944 1-698)
chain: MVFSYEHYMNLLFHLDNSKETVPPEIAKRIISNAIAPVITVTSTPLFDKHIQETYKVDSLYMLLRFFGGCVSDRDQANEAKVGQHEHEVCDASDSTDSIPKNKNLEVPNLSKKGSRSRSNSLFQRDSTQSQYIRFTRPLGDLIETRDANDMLFNYHSLEVFLDNYLKLVAANTDEMVPHNLLKKSIYHSFFSLAISSTNNLSPYETFNHPILSLIALDISNGEVYEDARDLLVNFKNLNHNTENFPIFMNTNEMLPVFLLCYNDDSQEEFEKCQALAKKLKKQLFVESILLALWKDSFIYDENSVIQLHQPVMSSLEEILFFLQAPTQTTLSLALINSIYDMLDYLVYDLMIPFMKRKVSFWEETILQPRKSLFNGAKFFKKFMNKNPVNGNHQHNSLTRDSQGNEYFASSSSEFLMRKLADWSMMLSDFKTAYSTYESLMDDLDAFPKYLASCIEWCAVSLLMGAQSIVTVKMIKNDINPLIERALATYENCSRIQRGKGKESNSLDVTEPVRSYETRCMILASELFLSLSNTWTSTPYAIQYLETILDECKLGPCSQIMVWERLSDCYNLRVDPRIKHRVGAMKKDAKDTEDLRGEHKYSTDHFTDEDILSEGLTRRRKAAFFRLIAAKKWAEQKQWRQVSWCLKDIESTYSEIKFLHGNGLILSKLKNQLNLKDVDSAPRPSEKNLTRTSVSFIG
As to B1, the binding entry in [1], in assay [2], in assay [3] and in [4] was “binds” each time.

B2: TRAPP core (complex, UniProt P38334 1-175; Q03337 1-283; P36149 1-193; Q03784 1-219; Q03630 1-159; Q99394 …)
chain 1: MPQYFAIIGKKDNPVYEIEFTNAENPQGFPQDLKELNPFILHASLDIVEDLQWQINPTSQLNGNGGNGSNGGGGFLRSRAVNNTDNCYLGKVDHFYGLAITAYISYSGMKFVMIHGNSANSSVVIDDNNMRSFYQEVHELYVKTLMNPFYKITDPIRSPAFDSRVRTLARKHLSK
chain 2: MSQRIIQPSASDQQFPGKSDGYEYTVGPKQAITSEASTTYIPSRIYSESLLFKRQEASLSAMAFLFQEMISQLHRTCKTAGDFETKLSDYGHNIGIRLLELLNFRASVSPSSLPRASAFLSQNESSSKLSNASNSPGMLANSSTATSASANERLQEKQTESLSNYITKMRRRDLKILDILQFIHGTLWSYLFNHVSDDLVKSSERDNEYMIVDNFPTLTQFIPGENVSCEYFVCGIIKGFLFNAGFPCGVTAHRMPQGGHSQRTVYLIQFDRQVLDREGLRFG
chain 3: MVSTTQSRSLKAMGEEIWKNKTEKINTELFTLTYGSIVAQLCQDYERDFNKVNDHLYSMGYNIGCRLIEDFLARTALPRCENLVKTSEVLSKCAFKIFLNITPNITNWSHNKDTFSLILDENPLADFVELPMDAMKSLWYSNILCGVLKGSLEMVQLDCDVWFVSDILRGDSQTEIKVKLNRILKDEIPIGED
chain 4: MAIETILVINKSGGLIYQRNFTNDEQKLNSNEYLILASTLHGVFAIASQLTPKALQLTQQTNIENTIPYIPYVGMSSNRSDTRNGGGNNNKHTNNEKLGSFKGDDFFKEPFTNWNKSGLRQLCTDQFTMFIYQTLTGLKFVAISSSVMPQRQPTIATTDKPDRPKSTSNLAIQIADNFLRKVYCLYSDYVMKDPSYSMEMPIRSNLFDEKVKKMVENLQ
chain 5: MGIYSFWIFDRHCNCIFDREWTLASNSASGTINSKQNEEDAKLLYGMIFSLRSITQKLSKGSVKNDIRSISTGKYRVHTYCTASGLWFVLLSDFKQQSYTQVLQYIYSHIYVKYVSNNLLSPYDFAENENEMRGQGTRKITNRNFISVLESFLAPMVNQ
chain 6: MSSTHSNNVGHPQSSPQGPLTEQQRAQQQYQIFENSLPKVSQSVYQMLLNEMVPLAMGIERQISGDVISSDSNVTSENGNINNMIKRLKIEEHHTVDIIRSHNLIHELYKADEEEKEKVLARLRNIGFQIGLKLSELLIFSNNPNLKFKEMDLLLIMKFICRDVWKQIFGKQIDNLKTNHRGTFYLLDYDYRPIQSFSLEEDAKNEELKMIEPFLEIPVGIIRGVLSSLGYSSEEVICLASFIDRPTDRPKTAFPKGVSFHVQVTMPQ
modifications: covalently bound palmitate (residue not stated)
For B2, the binding entry is “binds” in assay [5]; “binds” in assay [6]; “binds weakly” in assay [7]; “binds” in assay [8]; “binds” in assay [9].
